Key:
Assay in all cases: SPR, antibody captured on Protein A
[1] = biological target: T1, human Fcγ receptor hFcgRIIa (R) (human, UniProt P12318 36-217)
T1 construct: also called FcγRIIa (type R); FcγIIA
T1 chain: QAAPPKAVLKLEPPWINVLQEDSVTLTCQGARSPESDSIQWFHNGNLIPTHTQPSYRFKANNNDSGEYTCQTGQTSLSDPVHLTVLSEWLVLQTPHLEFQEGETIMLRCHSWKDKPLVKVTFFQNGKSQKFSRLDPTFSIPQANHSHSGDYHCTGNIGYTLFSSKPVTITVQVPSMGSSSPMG
Method: (§1) Furthermore, binding ability to hFcgRs was measured by the method described in Reference Example 3.
(§2) Interactions between antibodies and hFcgRs (hFcgRIa, hFcgRIIa(R), hFcgRIIa(H), hFcgRIIb, hFcgRIIIa(F), and hFcgRIIIa(V)) were analyzed using Biacore T100 (GE Healthcare). HBS-EP+(GE Healthcare) was used for the running buffer, and the measurement temperature was set at 25° C. Protein A (Invitrogen) was immobilized by the amino coupling method, and an antibody of interest was captured thereon. Then, hFcγR solutions diluted using the running buffer were injected to allow interaction with the captured antibody at a flow rate of 30 μL/min for five minutes for hFcγRIa, and at a flow rate of 5 μL/min for one minute for the other hFcγRs. […] Since the hFcγR binding level depends on the amount of captured antibodies, the FcgR-binding levels were corrected so that the capture level of each antibody would be 200 RU (resonance unit) for hFcgRIa and 1000 RU (resonance unit) for the other hFcgRs. The captured antibodies were washed by allowing 10 mM glycine-HCl (pH 1.5) to react for 30 seconds at a flow rate of 30 μL/min to recycle the chip for reuse.

[2] = biological target: T2, human Fcγ receptor hFcgRIIIa (V) (human, UniProt P08637 part only)
T2 construct: also called FcγRIIIa allotype V158; FcγIIIA
Method: as §1, §2

[3] = biological target: T3, human Fcγ receptor hFcgRIIa (H) (human, UniProt P12318 36-217)
T3 construct: also called FcγRIIa (type H); FcγIIA
T3 sequence: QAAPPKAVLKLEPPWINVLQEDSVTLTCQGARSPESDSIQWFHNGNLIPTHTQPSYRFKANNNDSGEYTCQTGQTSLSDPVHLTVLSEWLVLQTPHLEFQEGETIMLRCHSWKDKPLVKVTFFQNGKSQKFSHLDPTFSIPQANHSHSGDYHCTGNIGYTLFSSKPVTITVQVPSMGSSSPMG
Method: as §1, §2

[4] = biological target: T4, human Fcγ receptor hFcgRIIb (human, UniProt P31994 43-217, limits assumed)
T4 construct: Construct used in the SPR assay is not described; also called FcγRIIb; FcγIIB
T4 sequence: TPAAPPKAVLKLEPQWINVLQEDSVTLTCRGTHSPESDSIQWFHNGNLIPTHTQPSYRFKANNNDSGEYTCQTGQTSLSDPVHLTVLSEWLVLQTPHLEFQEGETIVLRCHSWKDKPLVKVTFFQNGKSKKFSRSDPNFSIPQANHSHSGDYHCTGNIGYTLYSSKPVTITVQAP
Method: as §1, §2

[5] = biological target: T5, human Fcγ receptor hFcgRIa (human, UniProt P12314 16-292, limits assumed)
T5 construct: Construct used in the SPR assay is not described; also called hFcγRIa; FcγI
Method: as §1, §2

T5 sequence (P12314 16-292 limits assumed): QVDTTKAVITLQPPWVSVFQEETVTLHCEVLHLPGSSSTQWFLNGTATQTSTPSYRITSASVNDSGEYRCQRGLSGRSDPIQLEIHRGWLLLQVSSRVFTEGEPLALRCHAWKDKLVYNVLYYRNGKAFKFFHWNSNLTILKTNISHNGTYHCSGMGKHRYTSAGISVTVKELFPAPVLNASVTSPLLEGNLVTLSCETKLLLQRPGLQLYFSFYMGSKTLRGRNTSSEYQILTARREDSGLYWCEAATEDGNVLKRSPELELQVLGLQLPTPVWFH
T2 sequence (P08637 other isoform, or with tags, fused parts or gaps limits assumed): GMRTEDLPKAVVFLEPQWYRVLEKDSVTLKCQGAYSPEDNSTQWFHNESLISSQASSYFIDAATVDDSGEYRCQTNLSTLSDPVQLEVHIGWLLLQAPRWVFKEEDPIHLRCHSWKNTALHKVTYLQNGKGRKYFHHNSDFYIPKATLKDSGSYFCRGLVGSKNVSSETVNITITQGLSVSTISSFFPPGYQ

B1: TS57 (antibody)
heavy: QVQLQESGPGLVRPSQTLSLTCTVSGYSITSDHAWSWVRQPPGRGLEWIGYISYSGITTYNPSLKSRVTMLRDTSKNQFSLRLSSVTAADTAVYYCARSLARTTAMDYWGQGSLVTVSS[human IgG1 constant region with L309R (EU numbers) not shown]
light: DIQMTQSPSSLSASVGDRVTITCRASQDISSYLNWYQQKPGKAPKLLIYYTSRLHSGVPSRFSGSGSGTDFTFTISSLQPEDIATYYCQQGNTLPYTFGQGTKVEIKRTVAAPSVFIFPPSDEQLKSGTASVVCLLNNFYPREAKVQWKVDNALQSGNSQESVTEQDSKDSTYSLSSTLTLSKADYEKHKVYACEVTHQGLSSPVTKSFNRGEC
notes: anti-IL6R IgG1, G1d with L309R (EU)
Which results are given for B1?
binding relative to G1 (=100) [1]: 97; binding relative to G1 (=100) [2]: 86.2; binding relative to G1 (=100) [3]: 98.1; binding relative to G1 (=100) [4]: 97.8; binding relative to G1 (=100) [5]: 101

B2: TS60 (antibody)
heavy: QVQLQESGPGLVRPSQTLSLTCTVSGYSITSDHAWSWVRQPPGRGLEWIGYISYSGITTYNPSLKSRVTMLRDTSKNQFSLRLSSVTAADTAVYYCARSLARTTAMDYWGQGSLVTVSS[human IgG1 constant region with K360H (EU numbers) not shown]
light: DIQMTQSPSSLSASVGDRVTITCRASQDISSYLNWYQQKPGKAPKLLIYYTSRLHSGVPSRFSGSGSGTDFTFTISSLQPEDIATYYCQQGNTLPYTFGQGTKVEIKRTVAAPSVFIFPPSDEQLKSGTASVVCLLNNFYPREAKVQWKVDNALQSGNSQESVTEQDSKDSTYSLSSTLTLSKADYEKHKVYACEVTHQGLSSPVTKSFNRGEC
notes: anti-IL6R IgG1, G1d with K360H (EU)
What does the source list for B2?
binding relative to G1 (=100) [1]: 103; binding relative to G1 (=100) [2]: 94.2; binding relative to G1 (=100) [3]: 105; binding relative to G1 (=100) [4]: 99.7; binding relative to G1 (=100) [5]: 105

B3: TS62 (antibody)
heavy: QVQLQESGPGLVRPSQTLSLTCTVSGYSITSDHAWSWVRQPPGRGLEWIGYISYSGITTYNPSLKSRVTMLRDTSKNQFSLRLSSVTAADTAVYYCARSLARTTAMDYWGQGSLVTVSS[human IgG1 constant region with P387E (EU numbers) not shown]
light: DIQMTQSPSSLSASVGDRVTITCRASQDISSYLNWYQQKPGKAPKLLIYYTSRLHSGVPSRFSGSGSGTDFTFTISSLQPEDIATYYCQQGNTLPYTFGQGTKVEIKRTVAAPSVFIFPPSDEQLKSGTASVVCLLNNFYPREAKVQWKVDNALQSGNSQESVTEQDSKDSTYSLSSTLTLSKADYEKHKVYACEVTHQGLSSPVTKSFNRGEC
notes: anti-IL6R IgG1, G1d with P387E (EU)
For B3, which “binding relative to G1 (=100)” value [1] is on record?
The value was 99.7.

What about the “binding relative to G1 (=100)” value [2] of the same binder?
Its value is 91.7.

And the “binding relative to G1 (=100)” value [3]?
The value was 102.

And the “binding relative to G1 (=100)” value [4]?
The value was 95.6.

And the “binding relative to G1 (=100)” value [5]?
The value was 101.

B4: TS63 (antibody)
heavy: QVQLQESGPGLVRPSQTLSLTCTVSGYSITSDHAWSWVRQPPGRGLEWIGYISYSGITTYNPSLKSRVTMLRDTSKNQFSLRLSSVTAADTAVYYCARSLARTTAMDYWGQGSLVTVSS[human IgG1 constant region with M428H (EU numbers) not shown]
light: DIQMTQSPSSLSASVGDRVTITCRASQDISSYLNWYQQKPGKAPKLLIYYTSRLHSGVPSRFSGSGSGTDFTFTISSLQPEDIATYYCQQGNTLPYTFGQGTKVEIKRTVAAPSVFIFPPSDEQLKSGTASVVCLLNNFYPREAKVQWKVDNALQSGNSQESVTEQDSKDSTYSLSSTLTLSKADYEKHKVYACEVTHQGLSSPVTKSFNRGEC
notes: anti-IL6R IgG1, G1d with M428H (EU)
Which results are given for B4?
binding relative to G1 (=100) [1]: 102; binding relative to G1 (=100) [2]: 90.3; binding relative to G1 (=100) [3]: 102; binding relative to G1 (=100) [4]: 108; binding relative to G1 (=100) [5]: 98.6

Source: US20200181257A1 (Chugai, published 2020)
